Sequences and labels used below:
B1: PhoQ; a variant is named by its letters at X, in order, P23837 (parent)
chain: MKKLLRLFFPLSLRVRFLLATAAVVLVLSLAYGMVALIGYSVSFDKTTFRLLRGESNLFYTLAKWENNKLHVELPENIDKQSPTMTLIYDENGQLLWAQRDVPWLMKMIQPDWLKSNGFHEIEADVNDTSLLLSGDHSIQQQLQEVREDDDDAEMTHSVAVNVYPATSRMPKLTIVVVDTIPVELKSSYMVWSWFIYVLSANLLLVIPLLWVAAWWSLRPIEALAKEVRELEEHNRELLNPATTRELTSLVRNLNRLLKSERERYDKYRTTLTDLTHSLKTPLXXLQXXLRSLRSEKMSVSDAEPVMLEQISRISQQIGYYLHRASMRGGTLLSRELHPVAPLLDNLTSALNKVYQRKGVNISLDISPEISFVGEQNDFVEVMGNVLDNACKYCLEFVEISARQTDEHLYIVVEDDGPGIPLSKREVIFDRGQRVDTLRPGQGVGLAVAREITEQYEGKIVAGESMLGGARMEVIFGRQHSAPKDE

The other results are listed elsewhere or left out. Where only a bound is given, the exact number is not on record here.

The variants in the assay derive from B1. Nature of the assay: enrichment ratio after two sorts for PhoP signalling (ratio (wild type AVST 3.29)); higher = more functional. The settings on record: with PhoP (E. coli).
Consider DNYN, for which the enrichment ratio was not above 0.25.

Regarding FPPI, the enrichment ratio was not above 0.25.

For WSYS, the enrichment ratio was not above 0.25.

For the variant HKGK, the enrichment ratio is not above 0.25.

As for IYNS, the enrichment ratio was not above 0.25.

For the variant MNQP, the enrichment ratio is not above 0.25.

With STTL, the enrichment ratio was 16.6.

For the variant NWKG, the enrichment ratio is not above 0.25.

On to DRQR, for which the enrichment ratio is not above 0.25.

Take LSPE: the enrichment ratio is not above 0.25.

Regarding MNLC, the enrichment ratio is 11.7.

Turning to KYDF, the enrichment ratio was not above 0.25.

For KVNT, the enrichment ratio is not above 0.25.

Take TYNS: the enrichment ratio came out at 4.69.

On to YYPK, for which the enrichment ratio was not above 0.25.

EHFF: the enrichment ratio turned out to be 0.435.

As to QTAH, the enrichment ratio was not above 0.25.

On to YDVA, for which the enrichment ratio was not above 0.25.

Consider SMTY, for which the enrichment ratio worked out at 5.28.

In the case of FCKV, the enrichment ratio is not above 0.25.

As to FDKG, the enrichment ratio is not above 0.25.

Take RIFP: the enrichment ratio is not above 0.25.

In the case of RRAK, the enrichment ratio was not above 0.25.

Turning to SMHL, the enrichment ratio was not above 0.25.

With QVPD, the enrichment ratio was not above 0.25.

As for LGVK, the enrichment ratio is not above 0.25.

With GEVP, the enrichment ratio was not above 0.25.

Regarding AECP, the enrichment ratio was not above 0.25.

Consider HDTG, for which the enrichment ratio was not above 0.25.

In the case of PRFS, the enrichment ratio was not above 0.25.

Consider QVYH, for which the enrichment ratio is not above 0.25.

As to DKIF, the enrichment ratio was not above 0.25.

Consider AKYT, for which the enrichment ratio is 1.73.

Turning to VNPK, the enrichment ratio is not above 0.25.

With FVNH, the enrichment ratio was not above 0.25.

With VKGP, the enrichment ratio is not above 0.25.

As for RSWS, the enrichment ratio is not above 0.25.

With VQNC, the enrichment ratio is not above 0.25.

Consider AELK, for which the enrichment ratio worked out at 11.5.

As to EIWC, the enrichment ratio is not above 0.25.

For the variant LGIM, the enrichment ratio is not above 0.25.

Turning to AMIT, the enrichment ratio was not above 0.25.

PDFP: the enrichment ratio is not above 0.25.

Consider FKLI, for which the enrichment ratio came to 2.7.

PMSF: the enrichment ratio is not above 0.25.

Consider YEYR, for which the enrichment ratio was not above 0.25.

MPVY: the enrichment ratio is not above 0.25.

As to PNYS, the enrichment ratio was not above 0.25.

For the variant RYRG, the enrichment ratio is not above 0.25.

On to KNHD, for which the enrichment ratio was not above 0.25.

Consider GEVD, for which the enrichment ratio is not above 0.25.

For the variant NNEE, the enrichment ratio was not above 0.25.

DYSM: the enrichment ratio is not above 0.25.

As for WATL, the enrichment ratio was not above 0.25.

As to YINR, the enrichment ratio is not above 0.25.

SDPW: the enrichment ratio is not above 0.25.

As for NMIF, the enrichment ratio is not above 0.25.

Take AGSM: the enrichment ratio came to 4.42.

As for IAEM, the enrichment ratio was not above 0.25.

Regarding CFSG, the enrichment ratio is not above 0.25.

Take NWRC: the enrichment ratio is not above 0.25.

As for PLKM, the enrichment ratio was not above 0.25.

Take VNHY: the enrichment ratio is not above 0.25.

For the variant QLTS, the enrichment ratio was not above 0.25.

Take RRDP: the enrichment ratio was not above 0.25.

Take KMRK: the enrichment ratio is not above 0.25.

GLKS: the enrichment ratio is not above 0.25.

Consider LTHN, for which the enrichment ratio is not above 0.25.

As to THGL, the enrichment ratio worked out at 6.65.

For the variant VLII, the enrichment ratio is not above 0.25.

Regarding GAMG, the enrichment ratio is not above 0.25.

For the variant TMQM, the enrichment ratio is 12.8.

As for NLTR, the enrichment ratio was not above 0.25.

For the variant ICQA, the enrichment ratio is not above 0.25.

As for LKPE, the enrichment ratio was not above 0.25.

For DEWG, the enrichment ratio was not above 0.25.

Turning to LLIG, the enrichment ratio is not above 0.25.

As for DPVI, the enrichment ratio was not above 0.25.

Consider PDPW, for which the enrichment ratio was not above 0.25.

As for VCVA, the enrichment ratio was not above 0.25.

Regarding LTDP, the enrichment ratio was not above 0.25.

As for FYME, the enrichment ratio was not above 0.25.

For DMVA, the enrichment ratio is not above 0.25.

For YIYV, the enrichment ratio is not above 0.25.

As to QFCT, the enrichment ratio was not above 0.25.

For ICNN, the enrichment ratio was not above 0.25.

As for GEWL, the enrichment ratio was not above 0.25.

As for VCPT, the enrichment ratio was not above 0.25.

Regarding MYLW, the enrichment ratio is not above 0.25.

WDYA: the enrichment ratio is not above 0.25.

PIIH: the enrichment ratio is not above 0.25.

Regarding VYYQ, the enrichment ratio was not above 0.25.

For the variant LNLP, the enrichment ratio was not above 0.25.

As for IRNR, the enrichment ratio was not above 0.25.

Turning to SQTG, the enrichment ratio was found to be 9.26.

Turning to PSKY, the enrichment ratio was not above 0.25.

Take NGRM: the enrichment ratio is not above 0.25.

Turning to TEYG, the enrichment ratio was found to be 1.95.

On to GIVA, for which the enrichment ratio was found to be 9.51.

For IHTV, the enrichment ratio is not above 0.25.

As to IDDW, the enrichment ratio was not above 0.25.

TWLI: the enrichment ratio was not above 0.25.

PCQQ: the enrichment ratio is not above 0.25.

Take VRKE: the enrichment ratio was not above 0.25.

With VEVS, the enrichment ratio amounted to 3.82.

LIPD: the enrichment ratio is not above 0.25.

As for YMFG, the enrichment ratio was not above 0.25.

As to SPSN, the enrichment ratio was not above 0.25.

As to LWKG, the enrichment ratio was not above 0.25.

As for GLED, the enrichment ratio was not above 0.25.

For DWVY, the enrichment ratio is not above 0.25.

Take HDFL: the enrichment ratio is not above 0.25.

On to IFFF, for which the enrichment ratio was not above 0.25.

KLIL: the enrichment ratio was not above 0.25.

With ENGY, the enrichment ratio is not above 0.25.

Regarding IDVN, the enrichment ratio was not above 0.25.

Consider YMGW, for which the enrichment ratio is not above 0.25.

As to HFQQ, the enrichment ratio was not above 0.25.

In the case of HNGF, the enrichment ratio is not above 0.25.

As to FYRG, the enrichment ratio is not above 0.25.

For the variant RNNN, the enrichment ratio is not above 0.25.

As to FSCK, the enrichment ratio was not above 0.25.

Regarding NVMG, the enrichment ratio was not above 0.25.

For VGPP, the enrichment ratio was not above 0.25.

Consider QARH, for which the enrichment ratio was not above 0.25.

As for NSYG, the enrichment ratio is not above 0.25.

Consider TSHS, for which the enrichment ratio stood at 5.44.

For HFSE, the enrichment ratio is not above 0.25.

For LSAK, the enrichment ratio is not above 0.25.

For DRDF, the enrichment ratio was not above 0.25.

Regarding ENYC, the enrichment ratio is not above 0.25.

MRIA: the enrichment ratio was not above 0.25.

Regarding ADQN, the enrichment ratio is not above 0.25.

As for RCII, the enrichment ratio was not above 0.25.

MCSR: the enrichment ratio is not above 0.25.

Consider SSLW, for which the enrichment ratio was determined as 0.881.

Consider GPWP, for which the enrichment ratio is not above 0.25.

With QLLQ, the enrichment ratio was not above 0.25.

Regarding RTFL, the enrichment ratio is not above 0.25.

Turning to YHYV, the enrichment ratio was not above 0.25.

For the variant LALH, the enrichment ratio is not above 0.25.

Turning to PIAG, the enrichment ratio was not above 0.25.

Consider NDDK, for which the enrichment ratio is not above 0.25.

As for IRID, the enrichment ratio was not above 0.25.

With QNWC, the enrichment ratio is not above 0.25.

As for YNTK, the enrichment ratio is not above 0.25.

Take DDHF: the enrichment ratio was not above 0.25.

Turning to GLKF, the enrichment ratio was not above 0.25.

On to DSFF, for which the enrichment ratio was not above 0.25.

On to FRLM, for which the enrichment ratio was not above 0.25.

For the variant KINP, the enrichment ratio was not above 0.25.

Take KDFW: the enrichment ratio is not above 0.25.

Take SDTE: the enrichment ratio is not above 0.25.

(Values after a collection of fitness landscapes (doi:10.1126/science.1257360).)
